# According to PMC4336329 (PLoS ONE, 2015):
# About 14,000 (4.5%) of roughly 310,000 compounds showed an effect of 50% or more. Effects have a minus sign here. The list shows a part of the results.
# Molecular target: human ether-à-go-go-related gene (hERG) potassium channel (human, UniProt Q12809)
# Assay: primary screen, population patch clamp on CHO cells stably expressing hERG
# 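Note: peak tail current of the secondary pulse compared with the same well before compound.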
# human ether-à-go-go-related gene (hERG) potassium channel, sequence (Q12809 whole entry, looked up): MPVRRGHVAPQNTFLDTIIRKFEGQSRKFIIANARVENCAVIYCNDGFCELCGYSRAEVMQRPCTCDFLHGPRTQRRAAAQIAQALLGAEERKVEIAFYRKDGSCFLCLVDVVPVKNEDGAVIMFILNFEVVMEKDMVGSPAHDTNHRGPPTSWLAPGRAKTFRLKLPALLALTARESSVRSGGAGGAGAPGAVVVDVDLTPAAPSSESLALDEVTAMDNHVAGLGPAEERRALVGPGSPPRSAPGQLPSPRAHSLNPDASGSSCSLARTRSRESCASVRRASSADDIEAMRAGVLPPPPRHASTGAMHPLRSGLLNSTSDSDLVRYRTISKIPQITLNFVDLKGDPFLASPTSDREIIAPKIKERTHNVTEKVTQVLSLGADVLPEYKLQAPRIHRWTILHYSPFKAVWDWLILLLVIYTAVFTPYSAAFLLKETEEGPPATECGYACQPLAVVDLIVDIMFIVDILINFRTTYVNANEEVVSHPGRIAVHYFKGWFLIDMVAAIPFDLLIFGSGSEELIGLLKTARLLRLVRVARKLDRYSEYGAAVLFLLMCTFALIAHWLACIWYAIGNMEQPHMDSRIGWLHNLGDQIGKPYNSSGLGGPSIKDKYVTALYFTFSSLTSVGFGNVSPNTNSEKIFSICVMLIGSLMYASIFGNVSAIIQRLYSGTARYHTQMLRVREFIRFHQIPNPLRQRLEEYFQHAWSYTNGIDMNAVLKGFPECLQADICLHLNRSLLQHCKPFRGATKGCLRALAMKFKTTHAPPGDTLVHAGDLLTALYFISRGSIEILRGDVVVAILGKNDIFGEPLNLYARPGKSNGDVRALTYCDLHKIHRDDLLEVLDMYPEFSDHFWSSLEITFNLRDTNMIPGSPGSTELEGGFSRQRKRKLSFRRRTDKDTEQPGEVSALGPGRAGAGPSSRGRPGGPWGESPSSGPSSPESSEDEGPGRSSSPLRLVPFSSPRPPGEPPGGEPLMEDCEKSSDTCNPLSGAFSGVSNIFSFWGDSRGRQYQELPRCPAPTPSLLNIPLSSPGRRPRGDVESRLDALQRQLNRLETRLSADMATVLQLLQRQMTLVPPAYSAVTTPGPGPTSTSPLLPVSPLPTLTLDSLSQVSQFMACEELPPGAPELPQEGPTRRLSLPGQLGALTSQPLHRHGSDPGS
row,SMILES,"hERG current change (%, negative = inhibition) at 10uM [%]"
1,O=C(COc1cc2oc(=O)c3c(c2cc1Cl)CCC3)NCCN1CCOCC1,17
2,O=C(NCc1ccc(F)cc1)C1CCN(S(=O)(=O)N2CCCC2)CC1,0.41
3,CN1CCN(C(=O)C(N)Cc2ccccc2)CC1 (stereo not shown),23.8
4,Cc1cccc(C)c1NC(=O)c1ccc2c(c1)CCN2S(C)(=O)=O,-8.92
5,O=C(Nc1nnc(Cc2ccccc2)s1)c1ccco1,1.96
6,O=C(CN1CCC(n2nnc3ccccc32)CC1)NCc1cccs1,-60.2
7,O=C(CCS(=O)(=O)c1ccccc1)Nc1ccc2c(c1)C(=O)NC2=O,4.57
8,Cc1ccc(S(=O)(=O)N2CCCC(C(=O)N3CCCc4ccccc43)C2)cc1 (stereo not shown),15.1
9,COCCN(CC1CCCN(C2Cc3ccccc3C2)C1)C(=O)c1ccc(C(C)=O)cc1 (stereo not shown),-78.6
10,C=CCN(c1ccc(C(=O)NCCCn2ccnc2)cc1)S(C)(=O)=O,12.3
11,CCOc1ncccc1C(=O)Nc1nnc(C2CC2)s1,5.61
12,COc1cccc(-c2nc(Cc3ccc(OC)c(OC)c3)no2)c1,0.706
13,CC1=Nc2cc(C(=O)O)ccc2Sc2ccc(C)cc21,53.5
14,CN1CCN(c2nc3ccccn3c(=O)c2C=O)CC1.Cl,16.2
15,CC(=O)Nc1ccc(NC(=O)COC(=O)c2c3c(nc4ccccc24)CCN(Cc2ccccc2)C3)cc1,-20
16,CCc1ccc(NC(=O)CSCc2nc(N)nc(Nc3ccccc3CC)n2)cc1,-4.74
17,CO/N=C/c1c(-c2ccc(Cl)cc2)nc2cc(C)ccn12,10.4
18,COc1ccc(/C=C/C(=O)NC(=S)N2C[C@H]3C[C@H](C2)c2cccc(=O)n2C3)cc1,-18.2
19,COc1ccc(OC)c(S(=O)(=O)Nc2ccc(O)c(Sc3ncn[nH]3)c2)c1,-5.38
20,O=C(CN1CCN(c2ccccc2)CC1)Nc1nnc(-c2ccccc2)s1,6.41

row,SMILES,"hERG current change (%, negative = inhibition) at 10uM [%]"
1,CC/C(=N\NS(C)(=O)=O)c1ccccc1,14.6
2,Cc1ccccc1C(=O)NCc1ccncc1,-7.31
3,O=C(CSc1nnc(CNC(=O)c2c(F)cccc2F)o1)NCCc1ccccc1,10.2
4,CCSc1nnc(NC(=O)/C=C/c2ccco2)s1,-2.02
5,O=C(CN(CC1CCCO1)C(=O)CCC(=O)Nc1nccs1)NCc1ccccc1 (stereo not shown),4.32
6,O=C(CSc1nnnn1-c1ccc2c(c1)OCCO2)Nc1nc2c(s1)CCCC2,1.75
7,CCc1c(C(=O)NNC(=S)NC2CCCCC2)csc1C,16.3
8,C/C(CC(=O)Nc1ccc(C)c(Cl)c1)=N\NC(=O)Cc1ccccc1,1.45
9,Cc1cc(C(=O)N/N=C/c2c(C)[nH]n(-c3ccccc3)c2=O)n[nH]1,14.7
10,O=C(NCC1CCCO1)C(=O)N/N=C/c1cc(Cl)ccc1O (stereo not shown),-2.19
11,CC(CCc1ccccc1)NC(=O)c1ccccc1F (stereo not shown),-4.53
12,NNC(=O)c1sc2nc(N3CCOCC3)c3c(c2c1N)CCCC3,11
13,Cc1ccc(N(CCO)C(=S)Nc2ccccc2)cc1,19.9
14,Cc1ccc(CCNC(=O)c2cccc(N3CCCC3=O)c2)cc1,-7.86
15,O=C(Nc1ccc(F)cc1)Nc1ccc2c(c1)OCO2,12.6
16,N#CCCN1CCN(S(=O)(=O)c2cc(Cl)ccc2Cl)CC1,-12.3
17,CCN(CC(=O)NCc1cccs1)C(=O)CCCOc1ccccc1,-35.2
18,O=C(COC(=O)C1CC(=O)N(Cc2ccco2)C1)c1ccc(OC(=O)c2ccco2)cc1 (stereo not shown),-3.5
19,CC(C)N1CCC(N2CCN(Cc3cc4c(cc3Cl)OCO4)CC2CCO)CC1 (stereo not shown),-18.5
20,CN(C)C(=O)c1ccc(Cl)cc1[N+](=O)[O-],27.1

row,SMILES,"hERG current change (%, negative = inhibition) at 10uM [%]"
1,CCC(=O)Nc1ccc(NC(=O)CN2CCCC(C)C2)c(Cl)c1 (stereo not shown),0.527
2,CN(CC(=O)Nc1c(Cl)cccc1Cl)C(=O)C1CC(=O)N(Cc2ccccc2)C1 (stereo not shown),21.8
3,C=CCOc1ccc2cccc(/C=N/NC(=O)c3cc4cc([N+](=O)[O-])ccc4s3)c2c1,15.9
4,COC(=O)/C(C#N)=C/c1c(Oc2cc(C)cc(C)c2)nc2c(C)cccn2c1=O,-11.2
5,CCOc1ccc(NC(=O)NCc2ccccn2)cc1,1.86
6,Cc1nc2ccc(S(=O)(=O)NCC(=O)N3CCCCC3)cc2s1,7.23
7,Nc1nc(SCC(=O)NCC2CCCO2)n[nH]1 (stereo not shown),-8.37
8,COC(=O)c1ccc(NS(=O)(=O)c2ccc(Cl)cc2)o1,0.192
9,Cc1cccc(-n2ccnc2SCC(=O)Nc2nccs2)c1,-8.75
10,CCOC(=O)c1ccc(NC(=O)C2CCC(CNc3c(N4CCOCC4)c(=O)c3=O)CC2)cc1 (stereo not shown),9.58
11,COc1ccc(-n2c(N)c(C(=O)NCc3ccco3)sc2=S)cc1,-3.38
12,O=c1c2c(nc3nc(Cc4ccccc4)[nH]n13)CCC2,8.83
13,CCCCC[C@H](O)/C=C/[C@@H]1[C@@H](C/C=C\CCCC(=O)OC)[C@@H](O)C[C@H]1O,2.11
14,Oc1ccc(C2NCc3ccccc3-n3cccc32)cc1Cl (stereo not shown),-17.2
15,O=C(NCc1cccc(C(F)(F)F)c1)c1cccc(S(=O)(=O)NCc2ccccc2)c1,4.24
16,O=C(Cn1cccn1)N1CCCC(N2CCN(c3ccccc3F)CC2)C1 (stereo not shown),8.87
17,COc1ccc(C(=O)Nc2ccc3[nH]ncc3c2)cc1OC,-13.5
18,Cc1ccnc(NC(=O)CCC(=O)N(CC(=O)NCc2ccccc2)c2ccc3c(c2)OCO3)c1,-3.85
